Data taken from ChEMBL document CHEMBL4888484, “Replenishing the malaria drug discovery pipeline: Screening and hit evaluation of the MMV Hit Generation Library 1 (HGL1) against asexual blood stage Plasmodium falciparum ,using a nano luciferase reporter read-out” (2022).
Screen size: about 150,000 compounds; about 540 (0.36%) showed an effect of 50% or more. This is one part of the list.

Each compound was assayed on Plasmodium falciparum (assay: Primary screen in NF54 nanoGlo assay, in single point, at 2uM, 72h; a lower Z score goes with more inhibition). Details: timepoint 72 hour.
Assay type: functional, Erythrocyte
`O=C(CCc1ccsc1)Nc1nncs1` was tested, and the “% Inhibition” value was -3% and the Z score was 0.33. `CCCCn1nccc1NC(=O)N[C@H](c1cc(C)ccn1)C1CC1` was tested, and the “% Inhibition” value was -16% and the Z score was 2.43. In the case of `CN(C)[C@H]1[C@H](Nc2ncc(F)c(N3CCOCC3)n2)[C@@H]2CCO[C@@H]21`, the “% Inhibition” value is reported as 0% and the Z score is reported as 0.02. With `Cc1cc(CNC(C)(C)c2c(C)noc2C)c2c(n1)CCCC2` the “% Inhibition” value was 4% and the Z score was -0.69. `O=C(Nc1cccc(C(F)(F)F)c1)C1(F)C(F)(F)C(F)(F)C(F)(F)C(F)(F)C1(F)F` was tested, and the “% Inhibition” value was 2% and the Z score was -0.22. With `CNc1ncccc1C(=O)N1CCN(C)C(=O)C1` the “% Inhibition” value was -4% and the Z score was 0.53. `OCC1(Cn2cnc(-c3ccccc3)c2-c2ccc3c(c2)OCCO3)CCOCC1` was tested, and the “% Inhibition” value was -12% and the Z score was 1.86. With `CC1CCCCC1OCC(=O)Nc1cc(C(N)=O)c(F)cc1F` (stereo not given) the “% Inhibition” value was -18% and the Z score was 1.96. In the case of `CC(=O)Nc1cc2[nH]nnc2c2nn[nH]c12`, the “% Inhibition” value is reported as 8% and the Z score is reported as -1.58. In the case of `Cc1ncccc1C(=O)N[C@H]1CC[C@H](Oc2ncc(F)cn2)CC1`, the “% Inhibition” value is reported as -10% and the Z score is reported as 1.13. With `COc1ccc(S(=O)(=O)Nc2cn(C)cc(Br)c2=O)cc1OC` the “% Inhibition” value was 11% and the Z score was -1.25. For `OCc1nnn(-c2nc(-c3ccccc3)cc(C(F)(F)F)n2)c1CO`, the “% Inhibition” value was 0% and the Z score was -0.04. With `Cc1csc(CNC(=O)N[C@H](c2cccs2)C(C)(C)CO)n1` the “% Inhibition” value was -5% and the Z score was 0.61. With `CC(C)(C)[C@@H]1CCCN1Cc1ccncc1` the “% Inhibition” value was -11% and the Z score was 1.12. `Cc1cccc(CS(=O)(=O)N2CCC[C@H](Oc3ncccn3)C2)c1` was tested, and the “% Inhibition” value was 6% and the Z score was -0.87. For `CNS(=O)(=O)[C@H]1CCN(Cc2cnc(C(C)(C)C)s2)C1`, the “% Inhibition” value was 0% and the Z score was -0.02. In the case of `c1ccc(CNCc2ccc(COC3CCOCC3)cc2)nc1`, the “% Inhibition” value is reported as -17% and the Z score is reported as 2.13. In the case of `CO[C@H]1C[C@@H](O)C12CCN(C(=O)CCc1n[nH]c(C)c1C)CC2`, the “% Inhibition” value is reported as -7% and the Z score is reported as 1.49. `CNc1ncc(C(=O)N2C[C@@H]3CC[C@H]2CN(C2Cc4ccccc4C2)C3)cn1` was tested, and the “% Inhibition” value was -3% and the Z score was 0.64. For `COc1ccccc1N1CCN(C(=O)C[C@@H]2NC(=O)NC2=O)CC1`, the “% Inhibition” value was 0% and the Z score was 0.02. In the case of `Cc1ccc(C(=O)NCCc2noc(C(F)(F)F)n2)s1`, the “% Inhibition” value is reported as -12% and the Z score is reported as 1.35. With `NC(=O)N1CCC[C@H]1C(=O)N1CCc2[nH]nc(C3CCC3)c2C1` the “% Inhibition” value was -4% and the Z score was 0.5. In the case of `CC(C(=O)N(C)C(C)C)N1CCS(=O)(=O)C(C)C1` (stereo not given), the “% Inhibition” value is reported as -5% and the Z score is reported as 0.83. `CCc1nsc(N2C[C@@H](O)[C@@H](O)C2)n1` was tested, and the “% Inhibition” value was -15% and the Z score was 1.84. For `Cc1cn2c(n1)[C@@H](CNC(=O)c1cn(C(C)C)cn1)CCC2`, the “% Inhibition” value was 0% and the Z score was -0.04. In the case of `Cc1ccc(C(=O)N2CCC(c3ncon3)CC2)n1C(F)F`, the “% Inhibition” value is reported as -9% and the Z score is reported as 0.75. In the case of `Cn1c(CNc2ccc(-n3ccnn3)cc2)nc2ccccc21`, the “% Inhibition” value is reported as -17% and the Z score is reported as 2.54. For `O=C1C[C@@H](c2ccccc2)n2nc(NC(=O)c3ccc4c(c3)OCO4)nc2N1`, the “% Inhibition” value was -3% and the Z score was 0.32. In the case of `Cc1nc[nH]c1-c1nccn1CCc1nc2c(s1)CCCC2`, the “% Inhibition” value is reported as 6% and the Z score is reported as -1.17. For `CCOC(=O)N1CCc2c(nc(-c3ccc(C)cc3)n(CC(=O)NCc3ccccc3)c2=O)C1`, the “% Inhibition” value was 26% and the Z score was -2.9. In the case of `O=C(NCC(=O)N1CCCC1)C(=O)Nc1ccc(O)cc1`, the “% Inhibition” value is reported as -3% and the Z score is reported as 0.48. With `C[C@H](NC(=O)c1cc(C2CC2)on1)c1ccc2c(c1)CC(=O)N2` the “% Inhibition” value was -4% and the Z score was 0.63. With `COCCNC(=O)Cn1c(N2CCc3ccccc3C2)nc(C)cc1=O` the “% Inhibition” value was 7% and the Z score was -0.93. In the case of `CCCc1nnsc1C(=O)NC1CCN(c2cc3c(nn2)CCCC3)CC1`, the “% Inhibition” value is reported as -17% and the Z score is reported as 2.85. For `Cc1cc(COC(=O)c2nccnc2-c2nc3ccccc3s2)no1`, the “% Inhibition” value was -4% and the Z score was 0.71. For `O=C(N[C@@H](Cn1cccn1)c1ccccc1)c1cc2ncc(CCO)cn2n1`, the “% Inhibition” value was -4% and the Z score was 0.44. In the case of `Cc1nn(C)c(Cl)c1-c1nc(-c2cnn(C)c2)no1`, the “% Inhibition” value is reported as -6% and the Z score is reported as 0.89. For `CCOCc1c(C(=O)Nc2cc(OCC)c(N3CCOCC3)cc2OCC)oc2ccccc12`, the “% Inhibition” value was -5% and the Z score was 0.89. For `CC1C(C)N(C(=O)OC(C)(C)C)CCN1C(=O)NCc1ccc2c(c1)OCO2` (stereo not given), the “% Inhibition” value was -16% and the Z score was 2.92. With `CCCN1CCN(C2CCN(Cc3ncc(C)o3)CC2)CC1` the “% Inhibition” value was -14% and the Z score was 2.72. In the case of `CCn1cc(C(=O)N2CCC[C@H](N(CCCN3CCCC3)C(=O)C(C)C)C2)c(C)n1`, the “% Inhibition” value is reported as 7% and the Z score is reported as -1.16. For `Cc1cc(C(F)(F)F)nc(C(=O)N[C@H](c2ccncc2)C2CC2)n1`, the “% Inhibition” value was -10% and the Z score was 1.42. For `CCS(=O)(=O)NCCCN(C)c1ccc(F)c(F)c1`, the “% Inhibition” value was -5% and the Z score was 0.49. In the case of `Cc1nnsc1C(=O)Nc1ccc(OCC(C)C)nc1`, the “% Inhibition” value is reported as -20% and the Z score is reported as 2.77. In the case of `C=CCn1c(C)c(CC(=O)NCc2ccccc2F)c(=O)n2nc(-c3ccc(C)cc3)nc12`, the “% Inhibition” value is reported as 5% and the Z score is reported as -0.57. With `Cc1ccccc1[C@H]1CN(C(=O)CCCn2ccnc2C)C[C@@H]1C(=O)O` the “% Inhibition” value was -10% and the Z score was 1.26. With `Cc1ccc(OCc2c(C(=O)N3CCCCCC3)c(=O)cc(C)n2CCN2CCOCC2)cc1` the “% Inhibition” value was -4% and the Z score was 0.4. For `Cc1noc(C)c1CC(=O)N[C@H]1CCc2nn(C)c(=O)n2CC1`, the “% Inhibition” value was -10% and the Z score was 1.61. In the case of `Cc1ccccc1CNC(=O)c1ccc(N2CCc3ccccc32)s1`, the “% Inhibition” value is reported as -16% and the Z score is reported as 2.14. With `CCc1ccc(CN2CCC([C@H](O)c3cccs3)CC2)nc1` the “% Inhibition” value was -10% and the Z score was 1.42. With `Cn1nnc(NC(=O)[C@@H]2C[C@]2(C)c2ccccc2)c1C(F)F` the “% Inhibition” value was 1% and the Z score was -0.26. In the case of `COc1ccc([C@H](C)N2CCC(n3cncn3)CC2)cc1Cl`, the “% Inhibition” value is reported as -2% and the Z score is reported as 0.25. In the case of `Cc1c(C#N)nn(-c2cccnc2)c1NC(=O)COC[C@H]1CCCO1`, the “% Inhibition” value is reported as 1% and the Z score is reported as -0.15. `CC(C)(C#N)c1ccc(-c2ccc3[nH]c(CO)nc3c2)cc1` was tested, and the “% Inhibition” value was -3% and the Z score was 0.63. `CN(CCC#N)C(=O)COc1ccc(Br)cc1Br` was tested, and the “% Inhibition” value was -10% and the Z score was 1.27. With `CCc1ncc(CN(C)C[C@H]2OCCN(C)[C@@H]2c2cnn(C)c2)o1` the “% Inhibition” value was -8% and the Z score was 0.99. `Cc1ccc(-c2ncccc2NC(=O)N2C[C@@H]3[C@@H](CF)[C@@H]3C2)s1` was tested, and the “% Inhibition” value was -5% and the Z score was 0.96. For `Cn1c(C(F)(F)F)nn(CC(=O)NCc2ccc(F)cc2)c1=O`, the “% Inhibition” value was -12% and the Z score was 1.42. For `Cn1ccnc(NCC(=O)NCC2CC2)c1=O`, the “% Inhibition” value was -5% and the Z score was 0.63. In the case of `COC[C@H](NC(=O)Cn1cc(C2CC2)nn1)c1ccc(F)c(F)c1`, the “% Inhibition” value is reported as 3% and the Z score is reported as -0.34. In the case of `Cc1cc(F)c(C(=O)O[C@@H](C)CCN2CCCC2=O)cc1F`, the “% Inhibition” value is reported as -8% and the Z score is reported as 1.07. For `CN(C)C(=O)CO[C@H]1CCOC[C@H]1NS(C)(=O)=O`, the “% Inhibition” value was -15% and the Z score was 1.68. With `O=C(NCc1ccc(F)cc1F)C1CCN(C(=O)c2nnn3c2CO[C@H](c2ccc(F)cc2)C3)CC1` the “% Inhibition” value was -9% and the Z score was 1.06. In the case of `C[C@H]1CN(CCO)CCN1C(=O)c1cccn1C1CCCC1`, the “% Inhibition” value is reported as -13% and the Z score is reported as 1.68. In the case of `CC1CCN(C(=O)C2CC2c2c(F)cccc2F)C(c2ccco2)C1` (stereo not given), the “% Inhibition” value is reported as 1% and the Z score is reported as -0.12. `CN1CCN(C(=O)c2nc3cnccc3s2)CC1(C)C` was tested, and the “% Inhibition” value was 4% and the Z score was -0.62. With `Cc1c(C(=O)Nc2ccccc2)[n+]([O-])cn1-c1ccc2c(c1)OCC(=O)N2` the “% Inhibition” value was -3% and the Z score was 0.46. In the case of `Cc1ccc2sc(-c3ccc(NCc4cccnc4)cc3)nc2c1`, the “% Inhibition” value is reported as -12% and the Z score is reported as 1.72. With `O=C(N[C@H]1CC[C@H](O)CC1)c1ccccc1NS(=O)(=O)N1CCOCC1` the “% Inhibition” value was 15% and the Z score was -1.91. With `CCn1c(=O)c(-c2nc(-c3ccc(OC)c(F)c3)no2)c(O)c2ccccc21` the “% Inhibition” value was -3% and the Z score was 0.36. In the case of `COc1ccc(CC(=O)N2C3CCC2Cn2c(n[nH]c2=O)C3)cc1` (stereo not given), the “% Inhibition” value is reported as -3% and the Z score is reported as 0.41. `CC(=O)Nc1cc(NC(C)=O)c(C)cc1C` was tested, and the “% Inhibition” value was -15% and the Z score was 2.33. For `CCCn1nccc1NC(=O)CN1C[C@]2(C)COC[C@]2(C)C1`, the “% Inhibition” value was -15% and the Z score was 1.62. `O=C(CN1C(=O)N[C@]2(CCc3cc(Cl)ccc32)C1=O)c1ccc2c(c1)OCO2` was tested, and the “% Inhibition” value was 0% and the Z score was -0.01. For `C[C@@](CO)(CCF)NC(=O)c1cccnn1`, the “% Inhibition” value was -7% and the Z score was 1.33. `CCc1nccn1[C@H]1CCCN(c2ncnc3[nH]ccc23)C1` was tested, and the “% Inhibition” value was -9% and the Z score was 1.66. In the case of `N#CCN(CC#N)C(=O)c1ccc2c(Br)cccc2c1`, the “% Inhibition” value is reported as 1% and the Z score is reported as -0.2. In the case of `Cn1ccnc1COc1ccc(C(=O)Nc2nc3cc4c(cc3s2)OCCO4)cc1`, the “% Inhibition” value is reported as 7% and the Z score is reported as -0.95. With `O=c1ccccn1Cc1nc([C@H]2CCOC2)no1` the “% Inhibition” value was -7% and the Z score was 1.17. `COc1ccccc1N1CCN(CCNC(=O)c2cnoc2C)CC1` was tested, and the “% Inhibition” value was -6% and the Z score was 1.13. With `C[C@@H]1CN(Cc2cc3n(n2)CCN(c2ncc(F)cn2)C3)C[C@H](C)O1` the “% Inhibition” value was 1% and the Z score was -0.08. For `O=C(NCCCNc1ccccc1)C(=O)Nc1ccn(Cc2cccnc2)n1`, the “% Inhibition” value was -14% and the Z score was 1.86. For `CC(=O)Nc1ccn2ncc(C(=O)Nc3cccc(-c4csc(C)n4)c3)c2c1`, the “% Inhibition” value was 3% and the Z score was -0.62. `O=C1[C@@H]2CCCN2C(=O)N1Cc1ccc(Cl)cc1` was tested, and the “% Inhibition” value was -8% and the Z score was 0.81. `O=C(C(c1ccccc1)c1ccccc1)N1C[C@H](O)[C@@H](F)C1` was tested, and the “% Inhibition” value was -9% and the Z score was 1.28.
